The list shows a part of the results.

Among the data in the antibiotic and cytotoxicity screens of Wong et al. (2023) are cytotoxicity call values, retold here.

The test system of one experiment is HSkMC (human skeletal muscle cells). Nature of the experiment: cytotoxicity call (relative viability < 0.9). The conditions noted are these: 10 µM.
`CCCCCNC(=N)NN=Cc1c[nH]c2ccc(OC)cc12.O=C(O)C=CC(=O)O`: the cytotoxicity call was “inactive”.

As to `COc1ccc([Si](C)(C)[C@H]2[C@H](CCn3cc([C@H](O)c4ccccc4)nn3)O[C@@]3(C(=O)N(Cc4ccc(N5CCOC5=O)cc4)c4ccccc43)[C@@H]2C)cc1`, the cytotoxicity call was “inactive”.

With `COc1ccc(cc1)S(=O)(=O)N1C[C@]2(CN(Cc3ccncc3)[C@H](CO)c3[nH]c4cc(ccc4c32)OC)C1`, the cytotoxicity call is “inactive”.

Turning to `C[C@@H]1CCCCO[C@H](CN(C)C(=O)Nc2ccc(F)cc2)[C@H](C)CN([C@@H](C)CO)C(=O)c2cc(NC(=O)CCC(F)(F)F)ccc2O1`, the cytotoxicity call was “inactive”.

As for `Clc1ccc(/C=N/Cc2ccc(-c3cccs3)s2)cc1`, the cytotoxicity call is “inactive”.

In the case of `C[C@H](CO)N1C[C@H](C)[C@H](CN(C)S(=O)(=O)c2ccc(F)cc2)Oc2ccc(NS(=O)(=O)c3cccs3)cc2CC1=O`, the cytotoxicity call was “inactive”.

For the compound `C[C@@H]1CN([C@H](C)CO)C(=O)c2cccc(NS(=O)(=O)c3cn(C)cn3)c2O[C@@H]1CN(C)S(=O)(=O)c1cn(C)cn1`, the cytotoxicity call is “inactive”.

As for `C[C@@H]1CCCCO[C@@H](CN(C)C(=O)Nc2cccc3ccccc23)[C@H](C)CN([C@@H](C)CO)C(=O)c2cc(NC(=O)Cc3ccccc3)ccc2O1`, the cytotoxicity call was “inactive”.

On to `COc1ccc(S(=O)(=O)Nc2ccc3c(c2)C(=O)N([C@@H](C)CO)C[C@@H](C)[C@@H](CN(C)S(=O)(=O)c2ccc(OC)cc2)O3)cc1`, for which the cytotoxicity call is “inactive”.

The next experiment deals with HepG2. Briefly: cytotoxicity call (relative viability < 0.9). The conditions noted are these: 10 µM.
On to `Cn1cnc(S(=O)(=O)N2C[C@H](O)COC[C@H]3O[C@H](CC(=O)NCc4cccc(F)c4)CC[C@@H]32)c1`, for which the cytotoxicity call is “inactive”.

Turning to `C#CCCCCCCCCCCC[C@H](O)C[C@H](O)CO.C=CCCCCCCCCCCC[C@H](O)C[C@H](O)CO`, the cytotoxicity call is “inactive”.

Turning to `Cc1ccc(S(=O)(=O)N(C)C[C@@H]2OCCCC[C@H](C)Oc3ccc(NS(C)(=O)=O)cc3C(=O)N([C@H](C)CO)C[C@H]2C)cc1`, the cytotoxicity call is “inactive”.

In the case of `C[C@@H]1CN([C@@H](C)CO)C(=O)c2cc(NS(C)(=O)=O)ccc2O[C@@H](C)CCCCO[C@@H]1CN(C)C(=O)Nc1ccc(C(F)(F)F)cc1`, the cytotoxicity call is “inactive”.

Take `COc1ccc(S(=O)(=O)N2CC(NC(=O)Cn3ccc(=O)n(C)c3=O)C2)cc1`: the cytotoxicity call was “inactive”.

For the compound `COC(=O)[C@@H](NC(=O)Cn1cc(COc2ccccc2/C=C(C)/C=C/C(=O)NO)nn1)c1ccccc1`, the cytotoxicity call is “active”.

On to `C[C@H](CO)N1C[C@H](C)[C@@H](CN(C)C(=O)CN2CCOCC2)Oc2ncc(/C=C/c3ccccc3)cc2C1=O`, for which the cytotoxicity call was “inactive”.

In the case of `NCC[C@H]1CC[C@@H](NC(=O)C2CCCCC2)[C@@H](CO)O1`, the cytotoxicity call was “inactive”.

Consider `CNC(=O)C[C@@H]1CC[C@H]2[C@@H](COc3ccc(NC(=O)c4ccc(C(F)(F)F)cc4)cc3C(=O)N2C)O1`, for which the cytotoxicity call was “inactive”.

For `COc1cc2c(cc1OC)-c1c(oc3c4c(ccc3c1=O)OC(C)(C)C=C4)CO2`, the cytotoxicity call was “active”.

Consider `C[C@@H]1CCCCO[C@H](CN(C)C(=O)c2ccncc2)[C@H](C)CN([C@H](C)CO)C(=O)c2cc(NS(C)(=O)=O)ccc2O1`, for which the cytotoxicity call is “inactive”.

On to `COCC(=O)Nc1ccc2c(c1)C(=O)N(C)C[C@H](OC)[C@@H](C)CN(C(=O)Cc1ccccn1)[C@H](C)CO2`, for which the cytotoxicity call was “active”.

Take `Cn1c(S(=O)(=O)CC(N)=O)nc2ccccc21`: the cytotoxicity call was “inactive”.

As for `COc1ccc(CN(C)C[C@@H]2OCCCC[C@@H](C)Oc3ccc(NC(=O)Nc4ccc(F)cc4)cc3C(=O)N([C@@H](C)CO)C[C@H]2C)cc1`, the cytotoxicity call is “active”.

As to `COc1ccc(NC(=O)N(C)C[C@@H]2OCCCC[C@H](C)Oc3ccc(NS(=O)(=O)c4ccc(C)cc4)cc3C(=O)N([C@H](C)CO)C[C@@H]2C)cc1`, the cytotoxicity call is “inactive”.

Take `C[C@H](CO)N1C[C@H](C)[C@H](CN(C)S(=O)(=O)c2ccc(Cl)cc2)Oc2ccc(NC(=O)CCCN(C)C)cc2CC1=O`: the cytotoxicity call was “inactive”.

For `CNC[C@@H]1Oc2ccc(NS(=O)(=O)c3cn(C)cn3)cc2C(=O)N([C@@H](C)CO)C[C@H]1C`, the cytotoxicity call was “inactive”.

`CN1C(=O)c2cc(NC(=O)c3cccs3)ccc2OC[C@H]2O[C@H](CC(=O)NCCN3CCCCC3)CC[C@@H]21`: the cytotoxicity call is “inactive”.

Turning to `O=C(C[C@@H]1C=C[C@@H](NC(=O)CN2CCOCC2)[C@@H](CO)O1)NC1CCC1`, the cytotoxicity call was “inactive”.

With `Cc1noc(C)c1S(=O)(=O)Nc1ccc2c(c1)C(=O)N([C@@H](C)CO)C[C@H](C)[C@@H](CN(C)S(=O)(=O)c1cn(C)cn1)O2`, the cytotoxicity call was “inactive”.

As to `Cc1noc(C)c1S(=O)(=O)N(C)C[C@H]1Oc2ccc(NS(=O)(=O)c3ccccc3)cc2CC(=O)N([C@@H](C)CO)C[C@H]1C`, the cytotoxicity call was “inactive”.

Turning to `C[C@@H]1CN([C@@H](C)CO)C(=O)c2cc(NC(=O)Cc3ccccc3)ccc2O[C@@H]1CN(C)S(=O)(=O)c1cn(C)cn1`, the cytotoxicity call is “inactive”.

Consider `C[C@@H]1CN([C@H](C)CO)S(=O)(=O)c2ccc(C#CC3(O)CCCC3)cc2O[C@@H]1CN(C)C(=O)Cc1ccccc1`, for which the cytotoxicity call is “inactive”.

As to `COc1ccc(S(=O)(=O)N(C)C[C@H]2Oc3ccc(NS(=O)(=O)c4cccs4)cc3C(=O)N([C@@H](C)CO)C[C@@H]2C)cc1`, the cytotoxicity call was “inactive”.

On to `COCCNC(=O)C[C@@H]1CC[C@@H]2[C@H](COC[C@@H](O)CN2C(=O)Nc2ccc3c(c2)OCO3)O1`, for which the cytotoxicity call is “inactive”.

As for `Oc1ccc(C2(c3ccccc3F)CCC(F)(F)CC2)cc1`, the cytotoxicity call was “inactive”.

Consider `C[C@H](CO)N1C[C@H](C)[C@H](CN(C)S(C)(=O)=O)Oc2ncc(Br)cc2C1=O`, for which the cytotoxicity call was “inactive”.

`Cc1ccc(S(=O)(=O)N(C)C[C@H]2OCCCC[C@H](C)Oc3ccc(NC(=O)Nc4cccc5ccccc45)cc3C(=O)N([C@H](C)CO)C[C@H]2C)cc1`: the cytotoxicity call is “inactive”.

Regarding `COC(=O)C[C@H]1CC[C@H](N)[C@@H](CO)O1`, the cytotoxicity call is “inactive”.

For the compound `CCOC(=O)N(C)C[C@H]1OCc2cn(nn2)CCCC(=O)N([C@H](C)CO)C[C@@H]1C`, the cytotoxicity call was “inactive”.

As for `COc1ccc(NC(=O)N(C)C[C@@H]2Oc3c(NC(=O)Nc4ccc(C(F)(F)F)cc4)cccc3C(=O)N([C@H](C)CO)C[C@@H]2C)cc1`, the cytotoxicity call is “inactive”.

For `CCCCCNC(=N)NN=Cc1c[nH]c2ccc(OC)cc12.O=C(O)C=CC(=O)O`, the cytotoxicity call is “inactive”.

On to `COc1ccc([Si](C)(C)[C@H]2[C@H](CCn3cc([C@H](O)c4ccccc4)nn3)O[C@@]3(C(=O)N(Cc4ccc(N5CCOC5=O)cc4)c4ccccc43)[C@@H]2C)cc1`, for which the cytotoxicity call was “inactive”.

As for `COc1ccc(cc1)S(=O)(=O)N1C[C@]2(CN(Cc3ccncc3)[C@H](CO)c3[nH]c4cc(ccc4c32)OC)C1`, the cytotoxicity call was “inactive”.

As for `C[C@@H]1CCCCO[C@H](CN(C)C(=O)Nc2ccc(F)cc2)[C@H](C)CN([C@@H](C)CO)C(=O)c2cc(NC(=O)CCC(F)(F)F)ccc2O1`, the cytotoxicity call was “inactive”.

Take `Clc1ccc(/C=N/Cc2ccc(-c3cccs3)s2)cc1`: the cytotoxicity call was “active”.

With `C[C@H](CO)N1C[C@H](C)[C@H](CN(C)S(=O)(=O)c2ccc(F)cc2)Oc2ccc(NS(=O)(=O)c3cccs3)cc2CC1=O`, the cytotoxicity call was “inactive”.

On to `C[C@@H]1CN([C@H](C)CO)C(=O)c2cccc(NS(=O)(=O)c3cn(C)cn3)c2O[C@@H]1CN(C)S(=O)(=O)c1cn(C)cn1`, for which the cytotoxicity call was “inactive”.

In the case of `C[C@@H]1CCCCO[C@@H](CN(C)C(=O)Nc2cccc3ccccc23)[C@H](C)CN([C@@H](C)CO)C(=O)c2cc(NC(=O)Cc3ccccc3)ccc2O1`, the cytotoxicity call is “inactive”.

On to `COc1ccc(S(=O)(=O)Nc2ccc3c(c2)C(=O)N([C@@H](C)CO)C[C@@H](C)[C@@H](CN(C)S(=O)(=O)c2ccc(OC)cc2)O3)cc1`, for which the cytotoxicity call was “inactive”.
